Laboratory results: PubChem BioAssay AID2675 (National Center for Advancing Translational Sciences (NCATS), 2010)
The campaign covered roughly 280,000 compounds. About 100 (0.036%) were called active. Inconclusive means that the source gave no clear call. Such entries were picked first, then a sample of the others. The call rests on the fitted dose curve; in most records, active means well fitted inhibition curve with a large enough effect in the signal ratio, with a control signal flat (not every such curve was filed as active); inconclusive means small, poorly fitted or top-dose-only effect, or effect the other way, or a change in a side signal; inactive means no such curve, though single readings can be large or run the other way; the % refers to the signal ratio. Where the call is inconclusive, the potency comes from a doubtful curve fit. A note “side channel” means that the fit belongs to a control or component signal, not to the main read-out.

target: Muscleblind-like protein 1 (Homo sapiens) (UniProt Q9NR56); assay: qHTS Assay for Inhibitors of MBNL1-poly(CUG) RNA binding; details: TR-FRET MBNL1-His/biotin-(CUG)12 binding, 665/545 ratio; activity change, negative = inhibition: at 57.5 µM (top of the series)
Sequence of UniProt Q9NR56 (Q9NR56 whole entry, looked up): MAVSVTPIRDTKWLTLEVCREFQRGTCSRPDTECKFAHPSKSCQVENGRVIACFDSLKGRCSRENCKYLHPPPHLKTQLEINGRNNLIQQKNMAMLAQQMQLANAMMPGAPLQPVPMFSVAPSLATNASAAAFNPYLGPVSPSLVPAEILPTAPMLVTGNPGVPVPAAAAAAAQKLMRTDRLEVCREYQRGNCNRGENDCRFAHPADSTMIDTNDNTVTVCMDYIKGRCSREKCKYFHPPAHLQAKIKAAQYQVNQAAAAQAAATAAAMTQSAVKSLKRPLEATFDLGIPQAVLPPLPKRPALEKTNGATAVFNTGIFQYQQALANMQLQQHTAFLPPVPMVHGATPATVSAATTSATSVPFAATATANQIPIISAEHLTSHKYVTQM
Procedure, shortened: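 Inhibition of protein-RNA binding appears as loss of TR-FRET between terbium anti-His antibody on MBNL1-His and streptavidin-XL665 on biotin-(CUG)12. Activity is normalized to buffer-only and uninhibited-complex controls.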
On the % scale 0 is the no-effect control and ±100 the full control effect; potency means the concentration at half of the fitted maximal effect; tags describe the fitted curve by direction and shape or compound fluorescence and quenching.

| Compound | Potency | activity change, negative = inhibition |
| --- | --- | --- |
| O=[N+]([O-])c1nn(-c2ccc3c(c2)OCCO3)n(O)c1=NCCCO | inconclusive: 12.6 µM [quencher, partial curve] | – |
| O=c1ccc2ccc(Oc3ccc([N+](=O)[O-])cc3[N+](=O)[O-])cc2o1 | inconclusive: 7.08 µM [quencher, side channel, partial curve] | – |
| Cc1[nH]n(-c2ccc([N+](=O)[O-])cc2)c(=O)c1C=NCCN1CCN(C(=O)c2ccc(Br)cc2)CC1 | – | inactive: 19.1% |
| O=C(CCc1ccccc1)Nc1ccccc1[N+](=O)[O-] | inconclusive: 15.8 µM [quencher, side channel, single point] | – |
| CC(C)NC(=O)CCS(=O)(=O)c1cccc2nonc12 | inconclusive: 5.01 µM [quencher, side channel, partial curve] | – |
| O=C(O)COc1ccccc1/C=N/NC(=O)c1cc(-c2ccccc2)nc2ccccc12 | inconclusive: 39.8 µM [quencher, side channel, single point] | – |
| COc1ccc(OC)c2c1CCC2=O | – | inactive: 1.48% |
| CSc1ccc(/C=N/n2nnnc2N)cc1 | inconclusive: 12.6 µM [quencher, side channel, partial curve] | – |
| Cc1cccc(Nc2c([N+](=O)[O-])c(=O)oc3ccccc23)c1 | inconclusive: 15.8 µM [quencher, side channel, partial curve] | – |
| O=C(Nc1ccc(N2CCCCC2)cc1)c1ccc([N+](=O)[O-])o1 | inconclusive: 8.91 µM [quencher, side channel, partial curve] | – |
| CC(=O)c1cn(CC(=O)Nc2c(C)cccc2C)c2ccccc12 | – | inactive: -6.27% |
| O=C1CNC(=O)/C(=C/c2ccco2)N1 | inconclusive: 28.2 µM [quencher, side channel, single point] | – |
| COc1ccc(-c2cc3ccccc3oc2=O)cc1NC(=O)c1cccnc1 | inconclusive: 14.1 µM [quencher, side channel, partial curve] | – |
| O=[N+]([O-])c1ccc(N/N=C2/CCCCC2c2ccccn2)cc1 (stereo unspecified) | inconclusive: 12.6 µM [quencher, side channel, single point] | – |
| O=C(Nc1ccc2nsnc2c1)N1CCCCC1 | inconclusive: 8.91 µM [quencher, side channel, full curve] | – |
| Cc1[nH]c2ccccc2c1CN1CCc2ccccc2C1 | – | inactive: 2.38% |
| CN1CCN(NC(=O)CN2C(=O)/C(=C/c3ccccc3F)SC2=S)CC1 | inconclusive: 3.16 µM [quencher, side channel, single point] | – |
| COc1ccc(-c2cc(-c3cccs3)c(C#N)c(SCC(=O)NCc3ccco3)n2)cc1 | – | inactive: 17% |
| COc1ccc(Nc2cc(C)nc3ccc(OC)cc23)cc1 | inconclusive: 3.98 µM [quencher, side channel, full curve] | – |
| O=[N+]([O-])c1ccc(N2CCCCC2)cn1 | inconclusive: 11.2 µM [quencher, side channel, partial curve] | – |
| O=C(C1=C(O)C(=O)N(CCCN2CCOCC2)C1c1ccccn1)c1cc2ccccc2o1 (stereo unspecified) | inconclusive: 25.1 µM [quencher, side channel, single point] | – |

| Compound | Potency | activity change, negative = inhibition |
| --- | --- | --- |
| Cc1cccc(-c2ocnc2C(=O)N2CCN(C(=O)c3cccs3)CC2)c1 | – | inactive: 0.479% |
| O=C(Nc1ncc([N+](=O)[O-])s1)C1COc2ccccc2O1 (stereo unspecified) | inconclusive: 25.1 µM [quencher, side channel, partial curve] | – |
| COc1ccc(-n2nc(C(=O)NCC(=O)NCCCN3CCOCC3)c3ccccc3c2=O)cc1OC | inconclusive: 25.1 µM [quencher, side channel, single point] | – |
| CC(C)(C)c1cc[n+](-c2[nH]c(=O)sc2/C=N/N=C(\[O-])c2cccnc2)cc1 | inconclusive: 17.8 µM [quencher, side channel, partial curve] | – |
| O=C(Cc1cccc2ccccc12)Nc1ccc(Br)cc1C(=O)O | inconclusive: 100 µM [inhibitor, single point] | – |
| CC(C)CC1=NN(C(=O)c2ccncc2)C(O)(C(F)(F)F)C1 (stereo unspecified) | inconclusive: 31.6 µM [inhibitor, partial curve] | – |
| O=C(O)c1cccc([N+](=O)[O-])c1C(=O)Nc1cccc2ccccc12 | inconclusive: 14.1 µM [quencher, side channel, partial curve] | – |
| Cc1cccn2c(=O)c3cc(C(=O)N4CCCCC4)sc3nc12 | inconclusive: 3.16 µM [quencher, side channel, full curve] | – |
| NC(=O)CC(NC(=O)c1ccccc1)c1ccc(NCCCN2CCCC2=O)c([N+](=O)[O-])c1 (stereo unspecified) | inconclusive: 11.2 µM [quencher, partial curve] | – |
| Cc1ccc2nc(-c3ccc(NC(=O)COCC(=O)O)cc3)sc2c1 | inconclusive: 35.5 µM [quencher, side channel, single point] | – |
| Cc1cc(C(=O)NCC(=O)OCC(=O)N2CCCCCC2)ccc1[N+](=O)[O-] | inconclusive: 17.8 µM [activator, partial curve] | – |
| O=C(CSc1nc2cc([N+](=O)[O-])ccc2n1-c1ccccc1)NCc1ccc2c(c1)OCO2 | inconclusive: 0.1 µM [fluorescent, side channel, full curve, poor fit] | – |
| O=C(Nc1ccc2nsnc2c1)C1CC1 | inconclusive: 14.1 µM [quencher, side channel, partial curve] | – |
| O=Cc1ccc(-c2cccc(C(=O)O)c2)o1 | inconclusive: 14.1 µM [quencher, side channel, partial curve] | – |
| Nc1nc2nonc2nc1N1CCCCC1 | inconclusive: 8.91 µM [quencher, side channel, full curve] | – |
| O=C1NC2=C(CCc3ccccc32)C(c2ccc(Br)cc2)N1 (stereo unspecified) | inconclusive: 22.4 µM [quencher, side channel, partial curve] | – |
| COc1ccc(CC(=O)Nc2cccc(-c3ccc4nnc(C)n4n3)c2)cc1OC | inconclusive: 14.1 µM [quencher, side channel, partial curve] | – |
| O=S(=O)(c1ccc(NC(=S)NN=C2CCCCC2)cc1)N1CCOCC1 | – | inactive: -0.804% |
| COC(=O)N/N=C/c1cc(N=Nc2ccccc2Cl)ccc1O | – | inactive: -7.55% |
| CN=Cc1cc(-c2ccccc2)sc1O | inconclusive: 1.58 µM [quencher, side channel, partial curve] | – |
| Cc1ccc(S(=O)(=O)N2CCCc3cc(NC(=O)c4c(F)cccc4F)ccc32)cc1 | – | inactive: 2.94% |

| Compound | Potency | activity change, negative = inhibition |
| --- | --- | --- |
| C/C(=N\Nc1ccc(Cl)c(C(=O)O)c1)c1cc2ccccc2o1 | inconclusive: 28.2 µM [quencher, side channel, partial curve] | – |
| O=C1N(Cc2cccnc2)C[C@@H]2C[C@@H](c3cccc(OC4CCCC4)c3)N3CCC[C@@]123 | – | inactive: 0.718% |
| COc1ccccc1NS(=O)(=O)c1ccc2ccccc2c1 | – | inactive: 4.18% |
| Cc1ccc(CCC(=O)Nc2ccc([N+](=O)[O-])cc2Cl)o1 | inconclusive: 28.2 µM [quencher, side channel, partial curve] | – |
| CC(=O)c1sc(NC(=O)c2c(F)cccc2F)nc1-c1ccccc1 | inconclusive: 31.6 µM [quencher, single point] | – |
| O=C1Nc2ccccc2C1=Nc1cccc([N+](=O)[O-])c1 | inconclusive: 14.1 µM [quencher, side channel, partial curve] | – |
| O=C(CCCn1c(=S)[nH]c2cc3c(cc2c1=O)OCO3)N1CCc2ccccc2C1 | – | inactive: 4% |
| CCOC(=O)N1CCN(C(=O)CSc2ccc(C(=O)OC)cc2[N+](=O)[O-])CC1 | inconclusive: 14.1 µM [quencher, side channel, partial curve] | – |
| CCOC(=O)C(C)/C(C)=N\Nc1ccc([N+](=O)[O-])cc1[N+](=O)[O-] (stereo unspecified) | inconclusive: 8.91 µM [quencher, side channel, partial curve] | – |
| CCN(CC)CCn1c(NCc2cc(OC)ccc2OC)nc2ccccc21 | – | inactive: -11.2% |
| COc1ccccc1NC(=O)C1CCCN(S(=O)(=O)c2cccc3nsnc23)C1 (stereo unspecified) | inconclusive: 12.6 µM [quencher, side channel, partial curve] | – |
| O=C(Nc1ccc([N+](=O)[O-])cc1)C1COc2ccccc2O1 (stereo unspecified) | inconclusive: 35.5 µM [quencher, side channel, single point] | – |
| CCCCCCCC(=O)Nc1ccc(C(=O)N/N=C/c2cccc([N+](=O)[O-])c2)cc1 | – | inactive: 0.254% |
| COC(=O)COc1ccc2c(-c3cccc([N+](=O)[O-])c3)cc(=O)oc2c1 | inconclusive: 1.78 µM [quencher, side channel, full curve, poor fit] | – |
| COc1cccc(C2C=C(c3cccs3)Nc3ncnn32)c1OC (stereo unspecified) | inconclusive: 28.2 µM [quencher, side channel, partial curve] | – |
| COc1cc(/C=N/NC(=O)Cc2cccs2)c([N+](=O)[O-])cc1OC | inconclusive: 39.8 µM [activator, single point] | – |
| Cc1cccn2c(=O)c3cc(C(=O)NCC4CCCO4)c(=N)n(C4CCCCC4)c3nc12 (stereo unspecified) | inconclusive: 3.55 µM [quencher, full curve] | – |
| Cc1ccccc1/C=N/NC(=O)Cn1cnc([N+](=O)[O-])n1 | inconclusive: 14.1 µM [quencher, side channel, partial curve] | – |
| CCC(=O)OCC(=O)Nc1cc([N+](=O)[O-])ccc1Cl | inconclusive: 28.2 µM [quencher, side channel, partial curve] | – |
